# ± gives the uncertainty stated by the source. Whole data set: some 9,900 compounds, median “viability index relative to DMSO control” near 1, cut for the lowest 2% near 0.85. This is one part of the list.
# System: Plasmodium falciparum NF54 stage V gametocytes
# Test: viability index relative to DMSO control (fraction); higher = less gametocyte killing
# Conditions: 2.5 µM, library set: Broad Institute DOS, incubation time: 72 h
# Outline: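 In 1,536-well plates, 10 µl of serum-free medium holding P. falciparum NF54 stage V gametocytes (0.75% gametocytemia, 1.25% hematocrit) received compound at 2.5 µM for 72 hr at 37°C in low oxygen. After one to two hours with 3 µl of 2.5 µM MitoTracker Red CMXRos containing 0.13% saponin, red particles of 20–70 µm2 were counted in a single field per well. Viability index is reported as the particle count over the plate mean of wells treated with solvent only.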
row,SMILES,viability index
1,Cc1noc(C)c1S(=O)(=O)N(C)C[C@@H]1OCCCC[C@H](C)Oc2ccc(NC(=O)CCC(F)(F)F)cc2C(=O)N([C@H](C)CO)C[C@@H]1C,1.055 ± 0.0039
2,CCS(=O)(=O)N1[C@H](CO)[C@H](c2ccccc2)[C@@H]1CN(C)Cc1ccccn1,1 ± 0.035
3,COc1ccc2c3c([C@@H](CO)N(C[C@]33CN(C3)C(=O)CN3CCOCC3)C(=O)Nc3ccc(F)cc3)n(C)c2c1,1.17 ± 0.1
4,CC(C)NC(=O)N(C)C[C@H]1Oc2ccc(NC(=O)c3ccncc3)cc2C(=O)N([C@@H](C)CO)C[C@H]1C,0.99 ± 0.13
5,COc1cccc(-c2ccc([C@H]3[C@@H]4CN(C(=O)Nc5ccccc5F)C[C@H]3N4)cc2)c1,1.04 ± 0.046
6,O=C(c1cccc(F)c1)N1CCCCN2[C@H](C1)[C@@H](c1ccc(C#CC3(O)CCCC3)cc1)[C@@H]2CO,1.05 ± 0.044
7,CO[C@H]1CN(C)C(=O)c2ccc(NS(=O)(=O)CC(F)(F)F)cc2OC[C@H](C)N(C(=O)NC(C)C)C[C@@H]1C,1.02 ± 0.093
8,O=C(Nc1ccccc1Cl)N1C[C@@H]2[C@H](c3ccccc31)[C@@H](CO)N2Cc1ccncc1,1.04 ± 0.073
9,COc1ccc(C#Cc2ccc([C@H]3[C@@H](CO)N4C(=O)CN(C(=O)c5ccc(F)cc5)C[C@@H]34)cc2)cc1,1.16 ± 0.07
10,Cc1nn(C)cc1NC(=O)C[C@H]1CC[C@H]2[C@H](COc3ccc(NC(=O)c4cccc(F)c4)cc3C(=O)N2C)O1,1.13 ± 0.038
11,COc1ccc2c3c([nH]c2c1)[C@H](CO)N(C[C@]31CCN(CC1)S(=O)(=O)c1cn(C)cn1)C(=O)Nc1ccc(F)cc1,1.07 ± 0.047
12,C[C@@H]1CN([C@@H](C)CO)C(=O)CCCn2cc(nn2)CO[C@H]1CN(C)S(=O)(=O)c1ccc(-n2cccn2)cc1,1.04 ± 0.039
13,CCC(=O)N1CC(=O)N2[C@@H](CO)[C@@H](c3ccc(-c4ccc(C#N)cc4)cc3)[C@@H]2C1,0.978 ± 0.069
14,COc1ccc(S(=O)(=O)Nc2ccc3c(c2)[C@H]2C[C@@H](CC(=O)N(C)C)O[C@H](CO)[C@H]2O3)cc1,0.996 ± 0.11
15,CO[C@@H](CN(C)S(=O)(=O)c1ccc(F)cc1)[C@H](C)CN(Cc1ccccc1Cl)[C@@H](C)CO,1.03 ± 0.04
16,C[C@@H](NC(=O)C[C@H]1C[C@@H]2c3cc(NS(=O)(=O)c4ccc(F)cc4)ccc3O[C@@H]2[C@H](CO)O1)c1ccccc1,1.03 ± 0.071
17,Cc1noc(C)c1NC(=O)N1C[C@@H](O)COC[C@@H]2O[C@@H](CC(=O)NCC3CC3)CC[C@H]21,1.14 ± 0.07
18,CCCNC(=O)Nc1ccc2c(c1)OC[C@@H](C)N(C(=O)C1CCOCC1)C[C@H](C)[C@H](OC)CN(C)C2=O,0.996 ± 0.052
19,CCN(C[C@@H]1N[C@@H](CO)[C@H]1c1ccc(-c2ccc(F)cc2)cc1)C(=O)CN(C)C,0.711 ± 0.021
20,Cc1ccccc1-c1cnc2c(c1)C(=O)N([C@H](C)CO)C[C@@H](C)[C@H](CN(C)Cc1ccccc1F)O2,1.01 ± 0.08
21,CN1C(=O)c2cc(NC(=O)c3ccc(C(F)(F)F)cc3)ccc2OC[C@@H]2O[C@@H](CC(=O)NCc3ccc4c(c3)OCO4)CC[C@@H]21,0.984 ± 0.041
22,O=C1CNC[C@H]2[C@H](c3ccc(C#CC4CCCCC4)cc3)[C@H](CO)N12,1.07 ± 0.059
23,CO[C@@H](CN(C)Cc1ccc2c(c1)OCO2)[C@@H](C)CN(C(=O)Nc1ccc(F)cc1)[C@H](C)CO,1.07 ± 0.018

row,SMILES,viability index
1,CO[C@@H]1CC[C@H]2CCN(C)C(=O)[C@@H](C)N(C)C(=O)c3cccc(C#N)c3OC[C@@H]1O2,1.05 ± 0.025
2,C/C=C/c1ccc([C@H]2[C@@H](CO)N3C(=O)CN(C(=O)NC4CCCCC4)C[C@@H]23)cc1,1.05 ± 0.011
3,COc1ccc(S(=O)(=O)Nc2ccc3c(c2)[C@@H]2C[C@@H](CC(=O)N(C)C)O[C@@H](CO)[C@@H]2O3)cc1,1.06 ± 0.081
4,COCC(=O)Nc1ccc2c(c1)C(=O)N(C)C[C@@H](OC)[C@@H](C)CN(CCc1ccccc1)[C@H](C)CO2,1.04 ± 0.044
5,COc1ccc(NC(=O)N(C)C[C@@H]2OCc3cnnn3CCCC(=O)N([C@@H](C)CO)C[C@H]2C)c(OC)c1,1.074 ± 0.0047
6,C[C@@H]1CCCCO[C@H](CN(C)C(=O)Cc2ccccc2)[C@H](C)CN([C@@H](C)CO)C(=O)c2cc(NS(C)(=O)=O)ccc2O1,0.998 ± 0.017
7,O=C(C[C@H]1CC[C@H]2NC[C@H](O)COC[C@@H]2O1)NC1Cc2ccccc2C1,1.05 ± 0.049
8,COc1ccc2c3c([nH]c2c1)[C@@H](CO)N(C[C@]31CCN(CC2CCCCC2)CC1)S(=O)(=O)c1cn(C)cn1,0.97 ± 0.038
9,C[C@H](O)C#Cc1ccc([C@H]2[C@@H](CO)N3CCCCN(C(=O)c4ccc5c(c4)OCO5)C[C@H]23)cc1,1.077 ± 0.0058
10,COc1ccc(CNC(=O)N(C)C[C@H]2OCc3ccccc3-c3c(n(C)c4ccccc34)C(=O)N([C@H](C)CO)C[C@H]2C)cc1,0.88341 ± 7.6e-05
11,CO[C@@H](CN(C)S(=O)(=O)c1cn(C)cn1)[C@H](C)CN(C(=O)Nc1ccc(C(F)(F)F)cc1)[C@@H](C)CO,0.954 ± 0.012
12,CS(=O)(=O)N1CC(=O)N2[C@H](CO)[C@@H](c3ccc(C#CCC4CCCC4)cc3)[C@H]2C1,0.982 ± 0.061
13,CCCC(=O)Nc1ccc2c(c1)OC[C@@H](C)N(CC1CCOCC1)C[C@H](C)[C@@H](OC)CN(C)C2=O,1.04 ± 0.06
14,COCCNC(=O)C[C@H]1C[C@@H]2c3cc(NC(=O)CN(C)C)ccc3O[C@@H]2[C@@H](CO)O1,1.06 ± 0.018
15,CO[C@@H]1CN(C)C(=O)c2cc(NC(=O)c3nc4ccccc4s3)ccc2OC[C@H](C)NC[C@@H]1C,1.01 ± 0.034
16,CC(C)C[C@@H]1COCc2cn(nn2)CC[C@H](C)C(=O)N1,1.097 ± 0.0051
17,CCNC(=O)C[C@H]1CC[C@H]2[C@@H](COC[C@@H](O)CN2C(=O)c2ccccn2)O1,1.11 ± 0.059
18,COc1ccc(NC(=O)N2C[C@@H]3[C@H](c4ccccc42)[C@@H](CO)N3Cc2ccccn2)cc1,1.043 ± 0.0079
19,C[C@@H]1CCCCO[C@@H](CN(C)Cc2ccc(C(=O)O)cc2)[C@@H](C)CN([C@H](C)CO)C(=O)c2cc(N(C)C)ccc2O1,1.18 ± 0.13
20,COCC(=O)N1[C@H](CO)[C@H](c2ccccc2)C12CN(C(=O)c1ccccc1)C2,0.986 ± 0.058
21,COc1ccc(S(=O)(=O)Nc2cccc3c2O[C@@H](CN(C)CC2CCCCC2)[C@H](C)CN([C@H](C)CO)C3=O)cc1,0.958 ± 0.094
22,CN1c2ccc(C3=CCCCC3)cc2[C@H]2[C@H](CCN2C(=O)Cc2ccccn2)[C@@H]1CO,0.947 ± 0.037
23,CNC(=O)C[C@H]1CC[C@H]2[C@@H](COC[C@H](O)CN2Cc2ccccc2F)O1,1.1 ± 0.062

row,SMILES,viability index
1,COCC(=O)N1CC(=O)N2[C@@H](CO)[C@@H](c3ccc(C#CC4CC4)cc3)[C@@H]2C1,1.08 ± 0.052
2,C[C@@H]1CN([C@@H](C)CO)C(=O)c2ccccc2-c2ccccc2CO[C@@H]1CN(C)C(=O)Nc1cccc(Cl)c1Cl,0.946 ± 0.053
3,COCC#Cc1ccc([C@@H]2[C@H](CO)N3C(=O)CN(C(=O)Nc4ccccc4F)C[C@@H]23)cc1,1.06 ± 0.026
4,C[C@@H]1COCc2cnnn2CC[C@H](Cc2ccccc2)C(=O)N1,1.0025 ± 0.001
5,COc1cccc(-c2ccc3c(c2)O[C@@H](CN(C)Cc2cccnc2)[C@@H](C)CN([C@@H](C)CO)S3(=O)=O)c1,1.101 ± 0.0046
6,CCCC#Cc1cnc2c(c1)C(=O)N([C@H](C)CO)C[C@H](C)[C@H](CN(C)C(=O)Nc1cc(F)ccc1F)O2,1.02 ± 0.081
7,CCCNC(=O)[C@@H]1[C@@H](CO)[C@@H]2Cn3c(ccc(C4=CCCC4)c3=O)[C@@H]2N1C(=O)c1cnccn1,1.01 ± 0.05
8,C[C@H](NC(=O)C[C@@H]1CC[C@@H]2[C@@H](COc3ccc(NS(=O)(=O)c4ccc(Cl)cc4)cc3C(=O)N2C)O1)c1ccccc1,1.02 ± 0.12
9,Cc1noc(C)c1S(=O)(=O)N(C)C[C@@H]1OCCCC[C@H](C)Oc2ccc(NS(=O)(=O)c3cn(C)cn3)cc2C(=O)N([C@@H](C)CO)C[C@H]1C,1.1 ± 0.071
10,C[C@H](CO)N1C[C@H](C)[C@@H](CN(C)S(=O)(=O)c2ccc(Cl)cc2)Oc2c(NC(=O)Nc3ccc(F)cc3)cccc2C1=O,0.977 ± 0.053
11,CO[C@H]1CC[C@@H]2CCOc3c(C#N)cccc3C(=O)N(C)C[C@@H](OC)[C@@H](C)C(=O)N(C)C[C@@H]1O2,1 ± 0.023
12,Cc1ccc(S(=O)(=O)N2CC[C@@H]3[C@H](CO)Nc4ccc(-c5cccc(C(=O)N(C)C)c5)cc4[C@@H]32)cc1,0.77 ± 0.034
13,CCc1cnc(N2[C@H](C#N)[C@@H](c3ccc(C#Cc4ccccc4F)cc3)[C@@H]2CO)s1,1.083 ± 0.0039
14,C[C@H]1CN([C@@H](C)CO)C(=O)c2ccccc2-c2ccccc2CO[C@@H]1CN(C)Cc1cccc(C(=O)O)c1,1.11 ± 0.039
15,C[C@H](CO)N1C[C@H](C)[C@@H](CN(C)Cc2cccc3c2OCCCO3)OCc2cnnn2CCCC1=O,1.06 ± 0.081
16,CS(=O)(=O)Nc1ccc2c(c1)[C@@H]1C[C@H](CC(=O)NCc3cc(F)ccc3F)O[C@@H](CO)[C@@H]1O2,1.109 ± 0.0089
17,CS(=O)(=O)N1C[C@@H](O)COC[C@H]2O[C@@H](CC(=O)NCc3ccccc3)CC[C@@H]21,1.13 ± 0.015
18,O=C(C[C@H]1CC[C@@H]2[C@H](COC[C@H](O)CN2C(=O)Nc2cc(Cl)cc(Cl)c2)O1)N1CCOCC1,1.09 ± 0.043
19,COCCNC(=O)C[C@@H]1CC[C@@H]2[C@H](COc3ccc(NC(=O)Nc4cccc(F)c4)cc3C(=O)N2C)O1,1.16 ± 0.07
20,COc1ccc(CN(C)C[C@@H]2OCc3cnnn3CCCC(=O)N([C@@H](C)CO)C[C@@H]2C)cc1,1.012 ± 0.0093
21,COc1ccc2c3c([nH]c2c1)[C@@H](CO)N(C[C@]31CCN(CC1)C(C)=O)C(C)=O,0.9689 ± 0.0023
22,CN(C)CC(=O)N1CC2(C1)[C@@H](c1ccccc1)[C@@H](CO)N2Cc1cc(F)ccc1F,1.09 ± 0.057
23,O=C(NC[C@@H]1[C@H](c2ccccc2)[C@@H](CO)N1C(=O)C1CCC1)NC1CCCC1,0.976 ± 0.12
